According to PMC4336329 (PLoS ONE, 2015):
Hit rate of the full screen: of about 310,000 compounds, about 14,000 (4.5%) showed an effect of 50% or more. The effect is printed as a negative number. This is one part of the list.

These molecules were tested against human ether-à-go-go-related gene (hERG) potassium channel (human, UniProt Q12809) (assay: primary screen, population patch clamp on CHO cells stably expressing hERG).
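Note: peak tail current of the secondary pulse compared with the same well before compound.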

Chain of human ether-à-go-go-related gene (hERG) potassium channel (Q12809 whole entry, looked up): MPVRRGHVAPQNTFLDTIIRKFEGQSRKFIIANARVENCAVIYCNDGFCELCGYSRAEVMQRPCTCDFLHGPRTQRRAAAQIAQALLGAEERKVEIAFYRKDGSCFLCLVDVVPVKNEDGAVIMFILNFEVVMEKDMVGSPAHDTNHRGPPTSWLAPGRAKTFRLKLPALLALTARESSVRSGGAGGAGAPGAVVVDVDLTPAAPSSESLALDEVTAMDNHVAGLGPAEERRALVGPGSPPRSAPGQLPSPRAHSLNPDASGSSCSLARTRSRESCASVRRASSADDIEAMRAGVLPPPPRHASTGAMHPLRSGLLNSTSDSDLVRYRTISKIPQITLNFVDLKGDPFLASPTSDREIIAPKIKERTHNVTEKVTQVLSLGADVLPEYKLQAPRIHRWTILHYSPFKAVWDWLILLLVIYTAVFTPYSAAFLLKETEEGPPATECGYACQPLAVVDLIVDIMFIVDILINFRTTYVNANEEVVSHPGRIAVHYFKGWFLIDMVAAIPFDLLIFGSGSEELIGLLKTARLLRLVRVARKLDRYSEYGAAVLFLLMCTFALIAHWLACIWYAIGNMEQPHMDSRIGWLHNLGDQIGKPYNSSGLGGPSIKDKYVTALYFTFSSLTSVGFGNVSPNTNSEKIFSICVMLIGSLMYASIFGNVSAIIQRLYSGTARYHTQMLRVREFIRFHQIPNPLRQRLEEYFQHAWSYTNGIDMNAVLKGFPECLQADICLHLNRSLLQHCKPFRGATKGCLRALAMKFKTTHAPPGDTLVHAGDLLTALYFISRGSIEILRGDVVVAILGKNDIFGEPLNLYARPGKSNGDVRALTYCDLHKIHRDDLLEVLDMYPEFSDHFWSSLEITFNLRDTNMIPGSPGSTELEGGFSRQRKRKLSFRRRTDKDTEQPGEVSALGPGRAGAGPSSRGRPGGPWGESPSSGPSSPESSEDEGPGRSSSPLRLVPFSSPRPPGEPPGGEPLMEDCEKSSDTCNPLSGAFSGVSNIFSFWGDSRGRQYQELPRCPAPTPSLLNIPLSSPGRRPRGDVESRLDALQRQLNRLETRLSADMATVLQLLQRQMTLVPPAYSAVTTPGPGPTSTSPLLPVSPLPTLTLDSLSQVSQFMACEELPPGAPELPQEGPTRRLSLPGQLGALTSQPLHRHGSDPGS

Row | Structure (SMILES) | hERG current change (%, negative = inhibition) at 10uM
1 | CN(c1cccc(NC(=O)CN(c2ccc(C34CC5CC(CC(C5)C3)C4)cc2)S(C)(=O)=O)c1)S(C)(=O)=O | 13%
2 | COc1ccccc1CNC(=O)Cn1c(=O)oc2cc(S(=O)(=O)N3CCCC3)ccc21 | 5.73%
3 | c1ccc(-c2nnc(CSc3nc4ccccc4[nH]3)o2)cc1 | -34.8%
4 | CC1CCN(S(=O)(=O)c2ccc(NC(=O)c3ccncc3)cc2)CC1 | -27.1%
5 | CCCOP(=O)(c1ccc(N(C)C)cc1)C(O)c1ccncc1 (centres unmarked) | 9.86%
6 | O=C(COc1ccc(Cl)cc1Cl)N1CCN(C(=O)c2ccco2)CC1 | 20.6%
7 | CC(=O)c1c(C)[nH]c(C(=O)OC(C)C(=O)Nc2cc(S(=O)(=O)N3CCCCC3)ccc2Cl)c1C (centres unmarked) | 0.883%
8 | CCOc1cc2c(cc1OCC)-n1cccc1C(c1c(O)cccc1OC)NC2.Cl (centres unmarked) | -28%
9 | CC(C)CN(C(=O)COC(=O)C12CC3CC(CC(Cl)(C3)C1)C2)c1c(N)n(Cc2ccccc2)c(=O)[nH]c1=O | 17.8%
10 | CC(=O)O.CC1=CC(C)C(/C=N/N=C(N)N)C(C)C1 (centres unmarked) | -18.4%
11 | CCCCn1c(SCC(=O)Nc2cc(C)on2)nnc1-c1cccs1 | -48.3%
12 | COc1ccc(S(=O)(=O)NC(C)C(=O)N2CCCCCC2)cc1 (centres unmarked) | 0.735%
13 | Cc1ccc(SCc2ccc(C(=O)Nc3cc([N+](=O)[O-])ccc3C)cc2)cc1 | 13.3%
14 | COCCn1c(SCC(=O)Nc2ccccc2)nc2c(oc3ccccc32)c1=O | 0.528%
15 | O=C(O)C1CCCCC1C(=O)Nc1cccc(Cl)c1Cl (centres unmarked) | 19.5%
16 | COc1cc(NC(=O)c2ccc(N3CC4CC(C3)c3cccc(=O)n3C4)c(NC(=O)c3ccncc3)c2)cc(OC)c1OC (centres unmarked) | 6.62%
17 | Cc1ccccc1NC(=O)Nc1ccccn1 | 19.6%
18 | Cc1cc2cc3c(cc2nc1SCC(=O)N1c2ccccc2CC1C)OCO3 (centres unmarked) | 3.48%
19 | O=C(OCc1cc2ccccc2[nH]c1=O)c1ccccn1 | 9.06%
20 | CCOC(=O)C1(CCc2ccccc2)CCN(C2CCSCC2)CC1 | -76.3%
21 | CCC(COC)Oc1cc(NCc2ccccc2)c2ncn(C(C)C)c2c1 (centres unmarked) | -6.65%
22 | CC(C)CNC(=O)C(=O)NCC1CCCN1S(=O)(=O)c1cccs1 (centres unmarked) | -3.06%
23 | Cc1ccc(NS(=O)(=O)c2c(C)ccc3nsnc23)c([N+](=O)[O-])c1 | 9.09%
